Consider 86 sequences from the supplement of paper PMC3334620.

In all, about 33,000 sequences were measured (“E-score (-0.5 to 0.5)”: median about -0.021, highest 2% from about 0.32 on). This is one part of the list.

This experiment deals with T1, Zap1 (UniProt P47043).
T1 sequence: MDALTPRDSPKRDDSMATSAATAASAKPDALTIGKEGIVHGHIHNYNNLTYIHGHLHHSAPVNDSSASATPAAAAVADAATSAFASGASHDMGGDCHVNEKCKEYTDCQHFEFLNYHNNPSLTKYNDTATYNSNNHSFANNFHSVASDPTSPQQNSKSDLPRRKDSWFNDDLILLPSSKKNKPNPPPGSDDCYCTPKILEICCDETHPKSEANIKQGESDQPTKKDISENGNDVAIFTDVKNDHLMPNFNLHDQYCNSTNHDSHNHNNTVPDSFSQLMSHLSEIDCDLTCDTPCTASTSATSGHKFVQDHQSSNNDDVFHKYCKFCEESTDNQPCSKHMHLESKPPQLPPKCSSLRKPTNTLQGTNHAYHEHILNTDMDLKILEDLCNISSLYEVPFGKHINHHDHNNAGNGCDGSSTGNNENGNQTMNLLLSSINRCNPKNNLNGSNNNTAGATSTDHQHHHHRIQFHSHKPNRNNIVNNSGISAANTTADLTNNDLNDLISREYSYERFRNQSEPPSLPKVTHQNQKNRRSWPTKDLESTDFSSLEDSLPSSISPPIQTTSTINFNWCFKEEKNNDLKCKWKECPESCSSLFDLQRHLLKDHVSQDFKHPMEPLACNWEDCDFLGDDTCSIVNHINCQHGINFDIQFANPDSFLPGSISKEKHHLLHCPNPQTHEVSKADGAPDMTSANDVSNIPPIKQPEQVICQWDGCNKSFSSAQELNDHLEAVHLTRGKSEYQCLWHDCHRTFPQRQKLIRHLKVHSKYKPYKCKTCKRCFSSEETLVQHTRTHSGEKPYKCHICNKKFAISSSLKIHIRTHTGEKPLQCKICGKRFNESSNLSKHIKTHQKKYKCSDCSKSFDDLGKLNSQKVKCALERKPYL
Kind of experiment: PBM E-score (8-mer binding enrichment) (E-score (-0.5 to 0.5)); higher = stronger / more preferred TF binding; most listed sequences are background and not binding sites. Conditions: protein concentration: 200 nM; construct: GST-full length. An outline of the steps:
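Masliner-normalised scans of fluorescent anti-GST signal were the basis for scoring. That signal came from GST-tagged yeast transcription factors applied at about 100-200 nM to double-stranded universal all-10-mer Agilent arrays on fresh or once-stripped slides. Each ungapped eight-base word, pooled with its reverse complement, received an E-score from the Universal PBM Analysis Suite.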
As to GTCGCCAC, the “PBM E-score” value is -0.179.
On to AAGTAAAC, for which the “PBM E-score” value stood at 0.00616.
Regarding AAACAAAG, the “PBM E-score” value is 0.146.
Next, ATGGATAC: 0.0885; TCTGGTAA: 0.28; GTACCGAC: -0.0413.
Next, AGAACTCT: -0.0113; CGATAGTC: -0.0762.
To TCATTTAA belongs 0.0585.
Regarding CGTGGCAA, the “PBM E-score” value is -0.175.
Turning to CCACACCA, the “PBM E-score” value is 0.15.
As for AGGCACCG, the “PBM E-score” value was -0.0707.
In the case of GAGAGGCA, the “PBM E-score” value was -0.218.
Next, ATCGGCTA: -0.00607; TATAACGA: 0.043; CCCACCTA: 0.0262.
To ACTAAACC belongs 0.0816; to ACGAGTGC, -0.28; to CCGTTGAA, 0.0375.
For the sequence CAGAATCC, the “PBM E-score” value is -0.0142.
Turning to CGCCACCA, the “PBM E-score” value was -0.204.
Next, ATGGTTAC: 0.471; GCGTAACC: 0.446; CATATAGC: -0.0322.
To AAGGGCAG belongs -0.293; to ACAGTAAA, 0.00478.
GGATTGGA: the “PBM E-score” value was -0.19.
To CGACTTAC belongs -0.22; to GGCAATTA, -0.0276; to GAGTGACC, 0.239.
As for AGTGCTCC, the “PBM E-score” value is -0.176.
For CGAACCAC, the “PBM E-score” value came out at 0.106.
Consider AACCGATT, for which the “PBM E-score” value turned out to be 0.15.
To ATGTATCA belongs 0.19; to GCTGGACC, -0.121; to GTAAATCA, 0.207.
Take AAAATGTT: the “PBM E-score” value was determined as 0.065.
Consider GAGTAATC, for which the “PBM E-score” value stood at 0.00348.
With AGAATCAG, the “PBM E-score” value was 0.0672.
Next, GATAGCAC: -0.117; CAGGCATA: -0.314.
With TCCCACCA, the “PBM E-score” value was -0.131.
Next, CGGAACAG: -0.194.
Consider GAAGCCGC, for which the “PBM E-score” value is 0.00935.
To GACTGCTC belongs -0.107.
As for AAGTACGA, the “PBM E-score” value is -0.00918.
Next, GGGACGGA: -0.275.
As to CACACTAA, the “PBM E-score” value came out at 0.143.
For the sequence GACCGTGC, the “PBM E-score” value is -0.107.
Regarding CAGGAGCG, the “PBM E-score” value is -0.101.
Consider CCGTCTCC, for which the “PBM E-score” value was -0.136.
To AAGGGTGA belongs 0.293; to AGGCTGAA, 0.0934.
Consider GTGAGCGA, for which the “PBM E-score” value worked out at 0.1.
To AGAGACCC belongs 0.078; to ACTCGTAT, 0.0878; to CTGGGCTC, -0.152.
For ACTTAACT, the “PBM E-score” value is 0.0364.
Regarding CTCGGGCC, the “PBM E-score” value was -0.0822.
To CAATGGAC belongs 0.0534.
Next, CCCAGACC: 0.0212; CGAGTCCA: -0.204; GAGCGAAA: 0.121.
For the sequence ACCACAAC, the “PBM E-score” value was found to be 0.307.
Next, ATTTAGCG: 0.0642; ACTGCATA: -0.0425.
To CCGCCCAG belongs 0.06.
Next, GACTGCTA: -0.167.
Consider GGGGCAAA, for which the “PBM E-score” value is -0.173.
Next, GCCGAAGA: -0.165; ACTGCAAC: 0.0354.
Next, GCCTAGCA: -0.217.
Next, CATCTAAA: 0.109.
As for AAATGCCT, the “PBM E-score” value is -0.173.
Next, GACATGTA: 0.0707.
To AATATCCT belongs 0.00302; to CCGGTCAG, 0.0589; to GTCCATAA, 0.15.
Next, ATCCGGTC: -0.12; ACTAGGTG: -0.171.
For GTCCGCTA, the “PBM E-score” value amounted to 0.127.
In the case of GAAGTGAA, the “PBM E-score” value is -0.0795.
Next, AGCGCCCA: -0.263; ATTAGGTA: 0.163; GCGCCGCA: -0.0334.
Next, GCGCATAA: -0.166.
